According to PubChem BioAssay AID1671193 (National Center for Advancing Translational Sciences (NCATS), 2021):
Screen size: about 150,000 compounds; about 180 (0.12%) were called active. Inconclusive means that the source gave no clear call. Such entries were picked first, then a sample of the others. The call rests on the fitted dose curve; in most records, active means well fitted cell-killing curve with a large enough effect; inconclusive means small, poorly fitted or top-dose-only effect, or effect the other way; inactive means flat fitted curve, though single readings scatter. Potencies of inconclusive entries are doubtful fits and often do not repeat.

Assay: GF-AFC viability counterscreen for inhibitors of alpha-synuclein gene (SNCA) expression; further: nearly all actives have a fitted effect of over 30% in size;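 on activity change, negative = cytotoxicity: 0% = DMSO-treated cells and -100% = medium-only wells without cells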
Settings: HEK-293-SNCA-luc viability, GF-AFC fluorescence, 24 h; activity change, negative = cytotoxicity: at 57.1 µM (top of the series) unless noted
Procedure, shortened: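 Cytotoxicity counterscreen: after 24 h compound treatment of genome-edited SNCA-luciferase HEK-293 cells, live-cell protease substrate GF-AFC read by fluorescence after 30 min; activity scaled between DMSO (0%) and medium-only (-100%), curves Hill-fitted.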
Potency means the concentration at half of the fitted maximal effect; tags describe the fitted curve by direction and shape.

SMILES	Potency	activity change, negative = cytotoxicity
O=C(Nc1cccc(Cl)c1Cl)c1cc2nc(-c3ccc4c(c3)OCO4)cc(C(F)(F)F)n2n1	inconclusive: 17.8 µM [cytotoxic, partial curve]	–
COc1ccc(-c2cc3ccc(O)c(CN4CCN(CCO)CC4)c3oc2=O)cc1OC	inconclusive: 15.8 µM [rising, partial curve, poor fit]	–
CCN(C(=O)Cn1c(SCC(=O)NCc2ccccc2)nc2ccccc21)c1cccc(C)c1	inconclusive: 20 µM [cytotoxic, single point]	–
O[C@@H]1CO[C@H]2[C@@H]1OC[C@@H]2n1cc(-c2ccccc2)nn1	–	inactive: 2.14% [at 87.6 µM]
CN1CCN(c2ncc3nc(-c4cccs4)c(=O)n(CCC#N)c3n2)CC1	inconclusive: 11.2 µM [rising, partial curve, poor fit]	–
CN1c2cc(C(=O)Nc3ccc(Cl)c(Cl)c3)ccc2C(=O)N2CCCCCC21 (stereo not given)	inconclusive: 3.16 µM [rising, single point]	–
CCOc1cccc(-c2noc(-c3nnn4c3COC(c3cccc(OC)c3)C4)n2)c1 (stereo not given)	–	inactive: 6.62%
Cn1nc(C(=O)N2CCC[C@H](n3c(=O)n(CC4CC4)c4cccnc43)C2)c2ccccc21	inconclusive: 31.6 µM [cytotoxic, single point]	–
COc1ccc(-c2cc(N3CCCC(NC(=O)c4cccc(C#N)c4)C3)n[nH]2)cc1 (stereo not given)	–	inactive: -10.8%
Cc1cc2c(c(=O)n(-c3ccccc3)c(=O)n2CC(=O)Nc2cccc(F)c2)n1C	inconclusive: 31.6 µM [cytotoxic, partial curve, poor fit]	–
CC(=O)Nc1ccc2ncnc(N3CCCC3)c2c1	–	inactive: -3.97%
COc1ccc(-c2nc(C(C)C)nc3c2CCN(C(=O)c2ccc(C)cc2)CC3)cc1	inconclusive: 39.8 µM [cytotoxic, single point]	–
O=C1C2=C(Nc3ccccc3SC2c2ccc(Cl)c(Cl)c2)c2ccccc21 (stereo not given)	inconclusive: 20 µM [cytotoxic, partial curve, poor fit]	–
COc1cccc(NC(=O)CN2C(=O)COc3ccc(S(=O)(=O)N4CCCCCC4)cc32)c1	inconclusive: 10 µM [cytotoxic, partial curve, poor fit]	–
COc1cccc(N2C(=O)C(CC(=O)Nc3ccc(F)cc3)N(CCC3=CCCCC3)C2=O)c1 (stereo not given)	inconclusive: 39.8 µM [cytotoxic, single point]	–
COc1ccc(CCC(=O)N2CCCCCC2CN2CCC(C)CC2)cc1 (stereo not given)	inconclusive: 31.6 µM [cytotoxic, single point]	–
Cc1nn(C)c(C)c1S(=O)(=O)NCC(=O)N1CCCCCNC(=O)CC1c1ccccc1 (stereo not given)	–	inactive: 1.02%
Cc1cc(NS(=O)(=O)c2ccc(NC(=O)COc3c(C)cc(Br)cc3C)cc2)no1	inconclusive: 7.94 µM [rising, partial curve, poor fit]	–
COc1ccccc1Nc1ccnc(N2CCN(C(=O)Cc3cccc(Cl)c3)CC2)n1	inconclusive: 39.8 µM [cytotoxic, single point]	–
Cc1ncccc1-c1nc2cc(C(=O)N3CCCCC3)ccc2o1	–	inactive: 8.42%

SMILES	Potency	activity change, negative = cytotoxicity
COc1ccc(F)cc1-c1ccc(C(=O)NCCCn2ccnc2C(C)C)cn1	–	inactive: -3.12%
COc1ccc(-c2nc(C)nc3c2CN(C(=O)c2ccccc2OC)CC3)cc1	inconclusive: 3.55 µM [cytotoxic, partial curve, poor fit]	–
O=C(Nc1ccccc1)N1Cc2[nH]cnc2C[C@H]1c1nc(-c2ccc3c(c2)OCO3)no1	inconclusive: 2 µM [cytotoxic, full curve, poor fit]	–
CCN1CCN(Cc2ccc(NC(=O)c3ccc(C)c(NC(=O)c4cncc(-c5cccs5)c4)c3)cc2C(F)(F)F)CC1	inconclusive: 33.6 µM [cytotoxic, single point]	–
CN1c2cc(C(=O)NCc3cccc(Cl)c3)ccc2C(=O)N2CCCC21 (stereo not given)	inconclusive: 7.08 µM [rising, single point]	–
COc1ccccc1N1CCN(C[C@@H]2C=C(C)[C@H](Cc3nnc(-c4cncn4C)o3)C[C@H]2C(C)C)CC1	inconclusive: 22.4 µM [cytotoxic, single point]	–
CN(C[C@@H]1COCCO1)S(=O)(=O)Nc1ccc2ccc3ncc(-c4cnn(C)c4)cc3c(=O)c2c1	inconclusive: 0.681 µM [cytotoxic, full curve, poor fit]	–
O=C(Cn1c(=O)n(-c2ccc(F)cc2)c(=O)c2sccc21)Nc1cccc(C(F)(F)F)c1	inconclusive: 20 µM [cytotoxic, single point]	–
Cc1cc(C)cc(OCC(=O)Nc2cccc(-c3nc4ccccc4[nH]3)c2)c1	inconclusive: 39.8 µM [cytotoxic, single point]	–
CCCc1nn(C)c2c(=O)[nH]c(-c3cc(S(=O)(=O)N4CCN(C)CC4)ccc3OCC)nc12	inconclusive: 10.8 µM [cytotoxic, partial curve, poor fit]	–
NCc1cccc(-c2ccc(O)cc2)c1	–	inactive: -8.06% [at 87.6 µM]
CC(C)c1ccc(NC(=O)CN2C(=O)NC3(CCOCC3)C2=O)cc1	–	inactive: -3.1%
COc1cc(NC(=O)Nc2cccc(CNC(=O)O[C@H]3CCOC3)c2)ccc1-c1cnco1	inconclusive: 9.47 µM [cytotoxic, partial curve]	–
COc1ccc(N2CCN(C(=O)c3cn(C4CCCCC4)c(=O)c4c3c3ccccc3n4C)CC2)cc1	inconclusive: 12.6 µM [cytotoxic, partial curve, poor fit]	–
O=C(c1n[nH]c2c1CCCC2)N1CCc2c(nc3cc[nH]n3c2=O)C1	–	inactive: 3.14%
Cc1ccc(C2(O)CCN(C(=O)CCC3NC(=O)NC3=O)CC2)nc1 (stereo not given)	inconclusive: 0.891 µM [rising, full curve, poor fit]	–
CC(C)[C@H](NC(=O)OCc1ccccc1)C(=O)N[C@H](C=O)Cc1ccccc1	–	inactive: -10.7%
C#CCNC(=O)C1=NOC2CN(S(C)(=O)=O)CC12 (stereo not given)	–	inactive: 0.51% [at 87.6 µM]
O=C1c2[nH]nc(-c3ccccc3O)c2C(c2cccc(Br)c2)N1Cc1ccncc1 (stereo not given)	inconclusive: 8.91 µM [cytotoxic, partial curve]	–
Cc1c(C(=O)N2CCOc3ccc(-c4ccc(N)nc4)cc3C2)ccc(S(C)(=O)=O)c1F	inconclusive: 2.99 µM [cytotoxic, full curve, poor fit]	–
